# Laboratory results: PubChem BioAssay AID504466 (National Center for Advancing Translational Sciences (NCATS), 2011)
# In all, about 330,000 compounds went through this assay and about 4,200 (1.3%) were called active. Inconclusive results, whose numbers are uncertain, are shown with a selection of clear calls. Calls follow the shape of the dose curve; as a rule, active = well fitted activation curve with a large enough effect; inconclusive = small, poorly fitted or top-dose-only effect; inactive = no such curve, though single readings can be large or run the other way. Potencies beside an inconclusive call are fits to weak or partial responses and may not hold up.
# Experiment: qHTS screen for small molecules that induce genotoxicity in human embryonic kidney (HEK293T) cells expressing luciferase-tagged ELG1; also: nearly all actives have a fitted effect of over 60% in size
# Details: HEK293T ELG1-luciferase reporter, luminescence, 16 h; series mostly up to 46 µM
# Method in brief: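 ELG1-luciferase HEK293T cells, 2,000/well; compound pinned in; 16 hr, 37 °C, 5% CO2; ONE-Glo, 30 min RT; luminescence on CCD imager.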
# Potency is read from the fitted curve at half-maximal effect; tags tell the direction and shape of the fitted curve.
row,SMILES,Potency
1,CCOc1ccccc1CNC(=O)c1cn(C)c(=O)c2c1c1ccccc1n2C,"inconclusive: 29.1 µM [activator, single point]"
2,COc1ccc(N2CCN(c3ncccn3)CC2)cc1,"inconclusive: 18.4 µM [activator, partial curve]"
3,COc1ccccc1N1C(=O)S/C(=C\c2ccc(C)s2)C1=O,"inconclusive: 11.2 µM [activator, partial curve, poor fit]"
4,CCOc1ccc2nc(SCC(=O)Nc3ncccn3)[nH]c2c1,inactive
5,O=C1CN(S(=O)(=O)c2ccc(F)cc2)c2ccccc2N1,inactive
6,Cc1nnc(SCC(=O)Nc2ncc(S(=O)(=O)c3ccc([N+](=O)[O-])cc3)s2)s1,"inconclusive: 29.1 µM [activator, partial curve, poor fit]"
7,COc1ccccc1/C=C1\SC(=S)N(CCC(=O)Nc2cccc(O)c2)C1=O,inactive
8,Cc1cc(C)c(NN=c2c(=O)c3ccccc3c2=O)c(C)c1,"inconclusive: 1.84 µM [activator, partial curve, poor fit]"
9,Cc1nnnn1/C(=C\c1ccccc1)C(=O)OCC(=O)Nc1cccc(S(=O)(=O)N(C)C)c1,"inconclusive: 18.3 µM [activator, partial curve, poor fit]"
10,CC(=O)N(C)c1ccc(NC(=O)Nc2ccc(C)cc2)cc1,"inconclusive: 20.6 µM [activator, partial curve, poor fit]"
11,CC1CCCN(CCCNS(=O)(=O)c2ccc3c(c2)CCN3C(=O)C2CC2)C1 (stereo unspecified),inactive
12,CC(C)(C)c1csc(N/N=C/c2ccc(O)cc2)n1,"inconclusive: 18.3 µM [activator, partial curve, poor fit]"
13,O=c1c2ccccc2c(C=Nc2cccc(O)c2)c(O)n1-c1ccc2c(c1)OCO2,inactive
14,O=S(=O)(Cc1cc(-c2ccccc2Cl)no1)c1ccccc1,"inconclusive: 8.2 µM [activator, partial curve, poor fit]"
15,CCCCN(C)CCNC(=O)CN1C(=O)CSc2ccc(S(=O)(=O)N3CCOCC3)cc21,inactive
16,COc1ccc(-c2cn(CC3CCCCC3)nn2)cc1,"inconclusive: 6.51 µM [activator, partial curve, poor fit]"
17,O=C(Nc1ccccn1)c1ccc2c(c1)OCO2,"inconclusive: 9.2 µM [activator, partial curve]"
18,O=C(Nc1ccccc1)OCCOc1ccccc1,active: 11.6 µM
19,COc1ccc(OC)c(NC(=O)CCNS(=O)(=O)c2cc(Br)cnc2N)c1,inactive
20,CC(C)(C)C(=O)Cn1ncc(N2CCCC2)c(Br)c1=O,"inconclusive: 18.4 µM [activator, partial curve, poor fit]"
21,CCOC(=O)CN1c2ccccc2NC(=O)CC1C (stereo unspecified),inactive
22,CCC(=O)N1CCN(c2ccccc2NC(=O)Cc2ccccc2)CC1,inactive
23,O=C(Nc1ccc(F)c(F)c1)c1ccco1,"inconclusive: 16.4 µM [activator, partial curve, poor fit]"
24,CC1CCC(NC(=O)CN2C(=O)NC(C)(C)C2=O)CC1 (stereo unspecified),active: 0.116 µM
25,Cc1ccc(Nc2c(-c3ccccn3)nc3cc(C)ccn23)cc1,"inconclusive: 29.1 µM [activator, single point]"
26,CC(=O)c1ccc(S(=O)(=O)Nc2ccc(-c3ccc4nnc(C)n4n3)cc2)cc1,"inconclusive: 20.6 µM [activator, single point]"

row,SMILES,Potency
1,CC(C)(C)NC(=O)NC(=O)COc1ccccc1C#N,active: 1.3 µM
2,O=C(CSc1nnc(-c2ccccc2F)o1)N1CCCC1,"inconclusive: 8.2 µM [activator, partial curve]"
3,Cc1nc2nc(-c3ccc(Cl)cc3)nn2c(C)c1Cl,"inconclusive: 14.6 µM [activator, partial curve, poor fit]"
4,C#CCn1c(=NC(=O)c2ccc(Br)s2)sc2cccc(OC)c21,"inconclusive: 23.1 µM [activator, single point]"
5,Clc1cccc(N/N=C/c2ccncc2)c1,"inconclusive: 23.1 µM [activator, partial curve, poor fit]"
6,CNC[C@H](CC1CCCCC1)NC[C@H](CO)NCC1(c2ccccc2)CC1,"inconclusive: 32.6 µM [activator, partial curve, poor fit]"
7,CC1CCCN(C(=O)c2ccc3nc[nH]c3c2)C1 (stereo unspecified),inactive
8,Cc1csc(NC(=O)c2ccccc2O)n1,"inconclusive: 3.66 µM [activator, partial curve, poor fit]"
9,CCN1CCN(c2ccc(S(=O)(=O)N3CCCCC3)cc2NC(=O)/C=C/c2ccc([N+](=O)[O-])cc2)CC1,"inconclusive: 25.9 µM [activator, single point]"
10,CC(C)c1ccc(NC(=S)NC2CCCCCC2)cc1,"inconclusive: 20.6 µM [activator, single point]"
11,COc1ccccc1NC(=O)Cn1nnc(-c2ccccc2NC(=O)c2cc3ccccc3oc2=O)n1,"inconclusive: 23.1 µM [activator, single point]"
12,O=[N+]([O-])c1ccc(O)c(/C=N/NC(=S)Nc2ccc(Cl)cc2Cl)c1,inactive
13,O=C1OC(Cc2ccccn2)C(O)=C1C1=NCCCCN1 (stereo unspecified),"inconclusive: 14.6 µM [activator, partial curve]"
14,CC(C)(C)OC(=O)NCCCCCNC(=O)c1ncn(Cc2ccccc2)c1C(=O)NCCCCCNC(=O)OC(C)(C)C,inactive
15,O=C(NC12CC3CC(CC(C3)C1)C2)N1CCN(C(=O)c2ccco2)CC1,"inconclusive: 16.4 µM [activator, partial curve, poor fit]"
16,CC(=O)NCCc1nc2cc(NC(=O)COc3ccc(C)cc3)ccc2n1C,inactive
17,CC(OC(=O)CNC(=O)c1ccccc1F)C(=O)Nc1nc(-c2ccccc2)cs1 (stereo unspecified),"inconclusive: 20.6 µM [activator, single point]"
18,O=C([C@@H]1CCCN1C(=O)c1cccs1)N1CCN(S(=O)(=O)c2cccc(F)c2)CC1,inactive
19,O=C(Nc1nc(-c2cccnc2)cs1)c1cccc([N+](=O)[O-])c1,"inconclusive: 25.9 µM [activator, partial curve, poor fit]"
20,Cc1cc(C)nc(N/N=C/c2cccc([N+](=O)[O-])c2)n1,inactive
21,Cc1cc(N)n2ncc(-c3ccc(Cl)cc3)c2n1,"inconclusive: 18.4 µM [activator, partial curve]"
22,COc1ccc(-c2nnc(-c3ccc(C)cc3)o2)cc1,"inconclusive: 3.66 µM [activator, full curve]"
23,N#C/C(=C\c1ccccc1Cl)C(=O)Nc1ccccn1,inactive
24,COc1ccccc1/C=C\C=N\NC(=O)CCn1nnc2ccccc21,inactive
25,Cc1csc(NC(=O)c2ccc(C)o2)n1,"inconclusive: 16.4 µM [activator, single point]"
26,CCN(CC(=O)Nc1ccc(OC)c(OC)c1)S(=O)(=O)c1ccc(C)cc1,inactive

row,SMILES,Potency
1,Cc1nc2ccc(N=NC3=C(O)CC(C)(C)CC3=O)cc2s1,"inconclusive: 6.51 µM [activator, partial curve]"
2,COc1cc(SC)ccc1C(=O)N(Cc1ccccc1)c1ccccc1,inactive
3,Cc1cccc(Nc2nc(-c3sc(C)nc3C)cs2)c1,"inconclusive: 18.3 µM [activator, partial curve]"
4,COC(=O)c1sc(N/N=C/c2ccc(C(C)C)cc2)nc1C,inactive
5,c1coc(CNc2nc3ccccc3s2)c1,"inconclusive: 8.2 µM [activator, partial curve]"
6,COc1nc(NCc2ccco2)nc(NC2CCCCC2)n1,"inconclusive: 23.1 µM [activator, single point]"
7,CC(C)(C)CC(=O)N1CCC(c2nc3c(nnn3Cc3c(F)cccc3Cl)c(=O)[nH]2)CC1,inactive
8,Cc1nc(-c2nnc(SCC(=O)Nc3ccc(C(F)(F)F)cc3)n2C)cs1,inactive
9,O=C(CNc1ccc(F)cc1)N/N=C/C1CC=CCC1 (stereo unspecified),inactive
10,Cc1cc(-c2nc3ncccc3o2)ccc1N,"inconclusive: 13 µM [activator, partial curve]"
11,O=C1/C(=C\c2cccs2)Sc2ccc3ccccc3c21,active: 3.66 µM
12,C/C(=N\NC(=O)c1ccccc1Cl)c1ccccn1,active: 14.6 µM
13,O=C(NC1CCCCC1)C1Cc2ccccc2CN1S(=O)(=O)c1ccc(F)cc1 (stereo unspecified),inactive
14,COc1ccc(C(=O)Nc2ccc(CN3CCS(=O)(=O)CC3)cc2)cc1,inactive
15,CC(=O)c1cnc2cc(C)nn2c1C,inactive
16,CC(=O)c1ccc2c(ccc3ccccc32)c1,active: 23.1 µM
17,COc1ccccc1NS(=O)(=O)c1cc2c3c(c1)CCN3C(=O)CC2,"inconclusive: 23.1 µM [activator, single point]"
18,Cc1ccc(N/C=C/C(=O)c2ccco2)c(O)c1,active: 3.66 µM
19,CCCc1sc(N/N=C/c2ccccn2)nc1-c1ccc(F)cc1,"inconclusive: 29.1 µM [activator, single point]"
20,Cc1ccc(C(=O)Nc2ccc3ncccc3c2)cc1,"inconclusive: 0.291 µM [activator, full curve, poor fit]"
21,O=C(Nc1cccc(O)c1)C(=O)Nc1ccccn1,"inconclusive: 0.651 µM [activator, single point]"
22,COc1ccc(-c2ocnc2C(=O)Nc2ccccc2N2CCCCC2)cc1,inactive
23,O=C(NCCc1ccccc1)c1ccco1,"inconclusive: 16.4 µM [activator, partial curve, poor fit]"
24,CN(C)C(CNC(=O)c1cc(S(=O)(=O)N(C)c2ccc(F)cc2)ccc1Cl)c1ccco1 (stereo unspecified),"inconclusive: 20.6 µM [activator, partial curve, poor fit]"
